In PMC6054203:
These are yes or no findings as the source states them, for the method shown. Where a sequence is shown, tags or fusion partners need not be part of it.

What was measured:
Assay in all cases: two-hybrid; yeast strain AH109 co-transformed with AD (pGAD.GH) and BD (pGBT9.BS) fusions; growth on SC-LWH and on SC-LWH with 0.5 and 3.0 mM 3-AT
[1] = molecular target: T1, CIPK6, two-hybrid fusion (Arabidopsis) (UniProt O65554)
T1 sequence: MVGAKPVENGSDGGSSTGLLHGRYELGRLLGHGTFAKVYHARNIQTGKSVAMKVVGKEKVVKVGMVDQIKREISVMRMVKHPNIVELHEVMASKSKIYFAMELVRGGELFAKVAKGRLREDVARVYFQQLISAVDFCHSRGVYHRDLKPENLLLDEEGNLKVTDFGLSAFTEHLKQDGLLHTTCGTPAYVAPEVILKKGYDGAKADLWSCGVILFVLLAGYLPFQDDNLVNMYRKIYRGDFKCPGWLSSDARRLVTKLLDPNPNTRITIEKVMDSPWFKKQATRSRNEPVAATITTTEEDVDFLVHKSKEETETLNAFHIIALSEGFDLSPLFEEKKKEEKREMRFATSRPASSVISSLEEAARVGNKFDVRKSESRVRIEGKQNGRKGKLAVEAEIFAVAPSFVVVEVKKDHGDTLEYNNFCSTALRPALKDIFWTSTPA

[2] = molecular target: T2, CIPK17, two-hybrid fusion (Arabidopsis) (UniProt Q94C40)
T2 sequence: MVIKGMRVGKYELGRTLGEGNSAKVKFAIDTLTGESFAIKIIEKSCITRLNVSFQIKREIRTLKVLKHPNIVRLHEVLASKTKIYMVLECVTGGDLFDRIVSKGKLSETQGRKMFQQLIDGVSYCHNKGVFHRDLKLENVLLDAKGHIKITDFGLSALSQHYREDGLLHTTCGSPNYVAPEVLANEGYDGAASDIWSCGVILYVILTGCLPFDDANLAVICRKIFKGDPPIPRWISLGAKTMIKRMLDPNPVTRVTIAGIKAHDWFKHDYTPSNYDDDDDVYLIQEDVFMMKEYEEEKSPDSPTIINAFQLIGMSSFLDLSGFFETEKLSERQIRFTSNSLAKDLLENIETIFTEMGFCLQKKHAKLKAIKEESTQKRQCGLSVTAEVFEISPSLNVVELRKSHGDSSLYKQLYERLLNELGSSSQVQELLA

[3] = molecular target: T3, CIPK2, two-hybrid fusion (Arabidopsis) (UniProt Q9LYQ8)
T3 sequence: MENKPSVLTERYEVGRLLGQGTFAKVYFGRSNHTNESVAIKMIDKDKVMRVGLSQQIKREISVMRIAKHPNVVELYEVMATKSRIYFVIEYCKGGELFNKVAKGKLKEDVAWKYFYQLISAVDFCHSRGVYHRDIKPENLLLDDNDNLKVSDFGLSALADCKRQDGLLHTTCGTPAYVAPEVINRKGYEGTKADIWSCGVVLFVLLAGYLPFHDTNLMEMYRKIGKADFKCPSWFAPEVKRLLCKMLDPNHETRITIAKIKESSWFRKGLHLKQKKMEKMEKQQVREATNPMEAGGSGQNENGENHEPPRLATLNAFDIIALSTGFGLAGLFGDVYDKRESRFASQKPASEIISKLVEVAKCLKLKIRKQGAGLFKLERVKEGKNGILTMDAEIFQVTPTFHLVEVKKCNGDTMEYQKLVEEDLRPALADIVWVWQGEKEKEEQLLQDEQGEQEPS

[4] = molecular target: T4, CIPK11, two-hybrid fusion (Arabidopsis) (UniProt O22932)
T4 sequence: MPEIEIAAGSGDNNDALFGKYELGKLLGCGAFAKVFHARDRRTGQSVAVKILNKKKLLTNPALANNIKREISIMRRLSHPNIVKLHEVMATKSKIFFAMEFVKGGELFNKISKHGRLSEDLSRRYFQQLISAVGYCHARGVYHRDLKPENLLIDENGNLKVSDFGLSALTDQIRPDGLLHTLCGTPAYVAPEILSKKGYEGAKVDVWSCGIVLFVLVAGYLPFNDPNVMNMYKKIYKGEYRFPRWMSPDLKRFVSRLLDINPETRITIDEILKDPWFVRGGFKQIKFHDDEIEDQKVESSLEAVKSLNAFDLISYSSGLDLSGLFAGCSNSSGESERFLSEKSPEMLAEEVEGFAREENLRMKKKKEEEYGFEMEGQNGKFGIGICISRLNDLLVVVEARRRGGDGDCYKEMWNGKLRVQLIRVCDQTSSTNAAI

[5] = molecular target: T5, CIPK26, two-hybrid fusion (Arabidopsis) (UniProt Q84VQ3)
T5 sequence: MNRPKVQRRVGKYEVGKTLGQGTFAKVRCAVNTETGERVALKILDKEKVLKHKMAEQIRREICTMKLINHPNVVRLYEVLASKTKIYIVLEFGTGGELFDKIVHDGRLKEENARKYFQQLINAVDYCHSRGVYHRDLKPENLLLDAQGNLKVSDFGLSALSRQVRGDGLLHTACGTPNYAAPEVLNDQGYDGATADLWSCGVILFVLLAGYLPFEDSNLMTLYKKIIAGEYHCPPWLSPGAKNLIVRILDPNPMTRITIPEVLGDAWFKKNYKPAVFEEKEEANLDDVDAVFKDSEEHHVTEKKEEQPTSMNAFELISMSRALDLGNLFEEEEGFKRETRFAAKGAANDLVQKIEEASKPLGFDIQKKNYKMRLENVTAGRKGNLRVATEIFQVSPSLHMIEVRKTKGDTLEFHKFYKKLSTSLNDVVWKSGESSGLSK

Measured: binding

B1: AP2C1 (protein phosphatase 2C), two-hybrid fusion (enzyme, UniProt O80871 1-396)
chain: MSCSVAVCNSPVFSPSSSLFCNKSSILSSPQESLSLTLSHRKPQTSSPSSPSTTVSSPKSPFRLRFQKPPSGFAPGPLSFGSESVSASSPPGGVLKRKRPTRLDIPIGVAGFVAPISSSAAVAATPREECREVEREGDGYSVYCKRGRREAMEDRFSAITNLHGDRKQAIFGVYDGHGGVKAAEFAAKNLDKNIVEEVVGKRDESEIAEAVKHGYLATDASFLKEEDVKGGSCCVTALVNEGNLVVSNAGDCRAVMSVGGVAKALSSDHRPSRDDERKRIETTGGYVDTFHGVWRIQGSLAVSRGIGDAQLKKWVIAEPETKISRIEHDHEFLILASDGLWDKVSNQEAVDIARPLCLGTEKPLLLAACKKLVDLSASRGSSDDISVMLIPLRQFI
no binding: all assays above
